Measurements as given in the supplement of paper PMC8047034.
Where a name gives a salt, the structure may show the parent alone. The list shows a part of the results. Most values come without repeats; read them as rough.

Legend:
OVCAR4 = test: log2 surviving fraction (library drug vs vehicle, or drug + carboplatin vs carboplatin alone; relative to plate median); ovarian cancer lines: OVCAR4 is platinum-sensitive and Ov4Carbo platinum-resistant; higher = more cell survival; conditions: library drug concentration 10 µM, 7 days
Ov4Carbo = test: as above; conditions: library drug concentration 10 µM, 7 days

Row | Compound | log2 surviving fraction (OVCAR4; carboplatin co-treatment 0 µM) | log2 surviving fraction (OVCAR4; carboplatin co-treatment 5 µM) | log2 surviving fraction (Ov4Carbo; carboplatin co-treatment 0 µM) | log2 surviving fraction (Ov4Carbo; carboplatin co-treatment 5 µM)
1 | COc1ccc(C2CNC(=O)C2)cc1OC1CCCC1 (stereo unspecified) [Rolipram] | 0.0249 | 1.3 | 0.982 | 0.551
2 | CSc1nc2cc(Cl)c(Oc3cccc(Cl)c3Cl)cc2[nH]1 [Triclabendazole] | 0.0637 | -0.139 | -0.124 | -0.25
3 | C[C@]12CCC(=O)C=C1[C@@H]1C[C@@H]1[C@H]1[C@@H]3[C@@H]4C[C@@H]4[C@@]4(CCC(=O)O4)[C@@]3(C)CC[C@@H]12 [Drospirenone] | 1.08 | 0.153 | 0.647 | -0.3
4 | Cc1cc(C(C)(C)C)c(O)c(C)c1CC1=NCCN1 [Oxymetazoline hydrochloride] | -0.378 | -0.155 | 0.517 | 0.435
5 | COC(=O)Nc1nc2cc(C(=O)c3ccc(F)cc3)ccc2[nH]1 [Flubendazole (Flutelmium)] | -0.387 | 0.695 | -0.859 | -5.94
6 | O=c1[nH]c(=O)n([C@H]2C[C@H](O)[C@@H](CO)O2)cc1C(F)(F)F [Trifluridine (Viroptic)] | -1.44 | -7.06 | -2.59 | -3.19
7 | Cc1cccc(Cc2c[nH]cn2)c1C [Detomidine HCl] | 1.24 | -0.275 | 0.677 | 0.597
8 | CCC(COC(=O)c1cc(OC)c(OC)c(OC)c1)(c1ccccc1)N(C)C (stereo unspecified) [Trimebutine] | 0.372 | -1.08 | 0.574 | -0.457
9 | CC1(C)O[C@@H]2[C@@H](CO[C@@]3(COS(N)(=O)=O)OC(C)(C)O[C@@H]23)O1 [Topiramate] | -0.975 | -0.783 | 1.74 | -0.574
